Results published in PubChem BioAssay AID463173 (ICCB-Longwood Screening Facility, Harvard Medical School, 2010).
Among all 52,000 compounds or so, about 4,300 (8.3%) were called active. Rule as the data show it: active = survival mostly below about 52% (no sharp cut-off); inactive = mostly above about 56%. This is one part of the list.

These compounds were tested on DeltatarO mutant (assay: S. aureus survival, RN4220 and DeltatarO strains – OD600, teichoic acid synthesis inhibitors, primary screen (AID 463173)). Settings: S. aureus RN4220 wild type/DeltatarO growth, OD600, 18 h, stronger effect = lower value, screened at 18.75 µg/mL (by protocol).

Question: For `O=C1c2ccccc2C(=O)N1c1ccccc1S(=O)C(F)(F)F` (stereo unspecified), which survival is on record?
Answer: inactive: 72%

Question: Which survival does the source give for `COc1cccc(Nc2sc(C(=O)c3ccc(Cl)cc3)c(N)c2C(=O)NCCc2ccc(OC)c(OC)c2)c1` here?
Answer: inactive: 101%

Question: How did the survival turn out when `COc1ccc(Cl)cc1NC(=O)Cn1cnc2sc(C)c(S(=O)(=O)N3CCN(c4ccccc4OC)CC3)c2c1=O` was run?
Answer: inactive: 79%

Question: For `Cc1cc2cc(CN(Cc3ccccc3)C(=O)N(C)C)c3nnnn3c2cc1C`, which survival is on record?
Answer: inactive: 84%

Question: For `O=C(CC1Nc2cccc3cccc(c23)NC1=O)Nc1ccc(F)cc1` (stereo unspecified), which survival is on record?
Answer: inactive: 111%

Question: How did the survival turn out when `O=C(CCn1cnc2onc(-c3ccc(F)cc3)c2c1=O)N1CCN(c2ccccc2F)CC1` was run?
Answer: active: -4%

Question: `CCOC(=O)C1CCCN(C(=O)c2ccc(NC(=O)c3nsc4ccccc34)cc2)C1` (stereo unspecified) was tested. Which survival did it give?
Answer: inactive: 90%

Question: For `Cc1ccc2c(CC(=O)N(Cc3cccc(Cl)c3)C3CCS(=O)(=O)C3)coc2c1` (stereo unspecified), which survival is on record?
Answer: inactive: 68%

Question: Which survival does the source give for `Cc1ccc(C(=O)CC2(O)C(=O)N(Cc3ccccc3)c3ccccc32)c(C)c1` (stereo unspecified) here?
Answer: active: 41%

Question: Which survival does the source give for `CNS(=O)(=O)c1cn(CC(=O)N2CCN(c3ccccc3OC)CC2)cc1S(=O)(=O)NC` here?
Answer: inactive: 72%

Question: `COC(=O)c1ccccc1NC(=O)Cn1c(=O)cc(C)c2c(C)nn(-c3cccc(Cl)c3C)c21` was tested. Which survival did it give?
Answer: inactive: 86%

Question: With `O=C(Nc1nnc(S(=O)(=O)N2CCc3ccccc32)s1)c1ccccc1Cl` as the compound, how does the survival read?
Answer: active: 20%

Question: Which survival does the source give for `Cc1c2cnn(CC(=O)N3CCN(c4ccc(F)cc4)CC3)c(=O)c2c(C)n1Cc1ccccc1F` here?
Answer: inactive: 61%

Question: How did the survival turn out when `Cc1cc(C)cc(-n2ccnc2SCC(=O)Nc2nc3ccc(C)cc3s2)c1` was run?
Answer: active: 52%

Question: `COc1ccc(-c2nc(Cn3c(=O)cc(C)c4c(C)nn(-c5ccccc5)c43)c(C)o2)c(OC)c1` was tested. Which survival did it give?
Answer: inactive: 94%

Question: How did the survival turn out when `CN(C)c1ccc(CNC(=O)Cn2ccc3cc(S(=O)(=O)N4CCCCCC4)ccc32)cc1` was run?
Answer: inactive: 88%

Question: Which survival does the source give for `Cc1ccc2c(c1)C(c1ccc(F)cc1)N(C(=O)c1cccc(C(F)(F)F)c1)CC(=O)N2` (stereo unspecified) here?
Answer: inactive: 141%

Question: For `COc1cccc(N2CCN(Cc3cc(=O)oc4cc(C)ccc34)CC2)c1`, which survival is on record?
Answer: inactive: 70%

Question: Which survival does the source give for `N#Cc1cccc(NC(=O)CCNS(=O)(=O)c2ccc3c(c2)CCN3C(=O)C2CC2)c1` here?
Answer: inactive: 82%

Question: Which survival does the source give for `COc1ccc2[nH]c(=O)c(CN(Cc3cccnc3)C(=O)Nc3ccccc3)cc2c1` here?
Answer: inactive: 93%

Question: For `Cc1ccc(S(=O)(=O)c2nnn3c2nc(N2CCC(C(N)=O)CC2)c2cc(Cl)ccc23)cc1C`, which survival is on record?
Answer: inactive: 72%

Question: Which survival does the source give for `Cc1ccc(NS(=O)(=O)c2c(C)nc3sc(C)cn3c2=O)c(C)c1` here?
Answer: inactive: 83%

Question: For `CS(=O)(=O)N1CCC(C(=O)NCC2CCCO2)CC1` (stereo unspecified), which survival is on record?
Answer: inactive: 100%

Question: With `Cc1nc2c(c(C)nn2C(C)(C)C)c(C)c1CCC(=O)Nc1ccc(Br)cc1Br` as the compound, how does the survival read?
Answer: inactive: 74%

Question: With `N#Cc1ccc(NC(=O)c2nc3ncccn3n2)cc1` as the compound, how does the survival read?
Answer: inactive: 80%

Question: `Cc1ccccc1CNC(=O)c1ccc(CN2CC(=O)N3CCCCC3C2=O)cc1` (stereo unspecified) was tested. Which survival did it give?
Answer: inactive: 109%

Question: With `CCc1nnc2c3ccccc3nc(N3CCN(c4cc(C)ccc4C)CC3)n12` as the compound, how does the survival read?
Answer: inactive: 73%

Question: `COc1ccc(CNC(=O)C(=O)Nc2cc(Cl)ccc2OC)cc1` was tested. Which survival did it give?
Answer: inactive: 162%

Question: How did the survival turn out when `Cc1ccccc1CN1C(=O)c2ccccc2S(=O)c2ccc(C(=O)NCc3ccc4c(c3)OCO4)cc21` (stereo unspecified) was run?
Answer: inactive: 71%

Question: Which survival does the source give for `COc1cccc(CNC(=O)CCC(=O)N2CC(C)Sc3ccccc32)c1` (stereo unspecified) here?
Answer: active: 51%

Question: How did the survival turn out when `COc1ccc(N2CCN(S(=O)(=O)CCNC(=O)c3c(F)cccc3Cl)CC2)cc1` was run?
Answer: inactive: 78%

Question: Which survival does the source give for `CC(=O)Nc1cc(C(=O)Nc2ccc3c(c2)N(C)C(=O)c2ccccc2S3)ccc1C` here?
Answer: inactive: 94%

Question: For `CCCc1nn2c(=O)cc(COC(=O)c3ccco3)nc2s1`, which survival is on record?
Answer: inactive: 77%

Question: How did the survival turn out when `COc1ccc(CCNC(=O)Cn2c(=O)c3cccn3c3ccccc32)cc1OC` was run?
Answer: inactive: 49%

Question: `COc1cccc(-c2noc(C3CCCN(C(=O)Cc4ccccc4)C3)n2)c1` (stereo unspecified) was tested. Which survival did it give?
Answer: inactive: 105%

Question: For `Cc1c(C(=O)NCc2ccc(F)cc2)sc2nc(-c3ccc(F)cc3)cn12`, which survival is on record?
Answer: inactive: 80%

Question: `CC(=O)Nc1c(C)nn(-c2ccccc2)c1N1CCC(C(=O)Nc2cccc(C(F)(F)F)c2)CC1` was tested. Which survival did it give?
Answer: inactive: 76%

Question: How did the survival turn out when `CCCCOc1ccccc1C1CC(=O)Nc2cc(OC)c(OC)cc21` (stereo unspecified) was run?
Answer: inactive: 66%

Question: For `CCOC(=O)Cn1c(=O)n(CC2CCCO2)c2nc(-c3ccc(CC)cc3)nc(C(N)=O)c21` (stereo unspecified), which survival is on record?
Answer: inactive: 72%

Question: For `O=C(CSc1ncc2c(n1)-c1ccc(Cl)cc1N(Cc1ccccc1)S2(=O)=O)Nc1ccccc1C(F)(F)F`, which survival is on record?
Answer: inactive: 83%

Question: For `CCC(=O)Nc1cc2nn(-c3ccc(C)cc3)nc2cc1C`, which survival is on record?
Answer: inactive: 58%

Question: Which survival does the source give for `Cc1ccc(NC(=O)[C@@H](c2ccccc2)N2Cc3ccccc3C2=O)cc1F` here?
Answer: inactive: 61%

Question: Which survival does the source give for `CCN(CC)CCCNC(=O)CN1C(=O)COc2ccc(S(=O)(=O)N3CCC(C)CC3)cc21` here?
Answer: inactive: 101%

Question: With `CC(Nc1oc(-c2ccc(COc3ccc(Cl)cc3)o2)nc1C#N)c1ccccc1` (stereo unspecified) as the compound, how does the survival read?
Answer: inactive: 65%

Question: With `O=C(NCc1ccccc1)c1ccc2c(c1)nc1n2CCOC1` as the compound, how does the survival read?
Answer: inactive: 84%

Question: How did the survival turn out when `COCCNC(=O)CSc1nnc2[nH]c(=O)cc(C)n12` was run?
Answer: inactive: 55%

Question: `CCN(CC)c1ccc(NC(=O)CN2C(=O)c3cccnc3Oc3ccc(Cl)cc32)c(C)c1` was tested. Which survival did it give?
Answer: inactive: 80%

Question: For `CCc1ccccc1NS(=O)(=O)c1cc(Br)cc2c1N(C(=O)C1CC1)CC2`, which survival is on record?
Answer: active: 52%

Question: With `CCc1cccc(NS(=O)(=O)c2cc(-c3cnc(C)o3)ccc2OC)c1` as the compound, how does the survival read?
Answer: inactive: 78%

Question: `CCOC(=O)Cn1c(=O)n(CC2CCCO2)c2nc(-c3c(F)cccc3Cl)nc(C(N)=O)c21` (stereo unspecified) was tested. Which survival did it give?
Answer: inactive: 84%

Question: With `Cc1cc(C)cc(N(CC(=O)NCc2ccccc2Cl)S(=O)(=O)c2c(C)[nH]c(=O)[nH]c2=O)c1` as the compound, how does the survival read?
Answer: inactive: 118%

Question: For `CCn1cc(S(=O)(=O)c2ccc(C)cc2C)c(=O)c2cc(F)c(N3CCCCC3)cc21`, which survival is on record?
Answer: inactive: 91%

Question: How did the survival turn out when `COC(=O)c1c(NC(=O)/C=C/c2ccc(OC)c(OC)c2)sc2c1CCC2` was run?
Answer: inactive: 51%

Question: Which survival does the source give for `CC1(C)Cc2nc(N)c(C#N)cc2CO1` here?
Answer: inactive: 79%

Question: `CN(C)C(=O)Cn1c(SCC(=O)NC2CCCCC2)nc2ccccc21` was tested. Which survival did it give?
Answer: inactive: 100%

Question: `Cc1noc(Cn2c(=O)c3ccccc3n(CC(=O)Nc3ccc(C(C)C)cc3)c2=O)n1` was tested. Which survival did it give?
Answer: inactive: 115%

Question: How did the survival turn out when `CCCCC1CCC(CCCC(C)CCC(=O)O)CC1` (stereo unspecified) was run?
Answer: active: -4%

Question: With `COc1ccc(-n2cc(-c3ccc4c(c3)OCO4)n(CC(=O)Nc3cccc(C)c3)c2=O)cc1` as the compound, how does the survival read?
Answer: inactive: 67%

Question: With `Cc1cccc(NC(=O)Cn2cc(S(=O)(=O)Cc3ccccc3Cl)c3ccccc32)c1` as the compound, how does the survival read?
Answer: inactive: 75%

Question: With `COc1cccc(-c2n[nH]c3c2C(c2ccccn2)N(C)C3=O)c1` (stereo unspecified) as the compound, how does the survival read?
Answer: inactive: 49%

Question: Which survival does the source give for `O=C(CC1N=C2c3ccccc3N=C(SCC(=O)Nc3ccc(F)cc3)N2C1=O)NCc1ccc2c(c1)OCO2` (stereo unspecified) here?
Answer: inactive: 67%

Question: How did the survival turn out when `CSc1ncc(Cl)c(C(=O)N(Cc2ccc(C(C)C)cc2)C2CCS(=O)(=O)C2)n1` (stereo unspecified) was run?
Answer: inactive: 70%

Question: How did the survival turn out when `Cc1ccccc1Cn1c(SCc2ccc(C(=O)NCCc3ccccc3)cc2)nc2ccncc21` was run?
Answer: inactive: 82%

Question: `Cc1cc(C)n(C(C)CC(=O)Nc2ccc(C)c(F)c2)n1` (stereo unspecified) was tested. Which survival did it give?
Answer: inactive: 87%

Question: With `CCn1c(=O)c2sccc2n2c(CCCC(=O)Nc3ccc(OC)c(OC)c3)nnc12` as the compound, how does the survival read?
Answer: inactive: 91%

Question: `COc1ccc(C(=O)Nc2nc3n(n2)C(c2ccc(F)cc2)C=C(c2ccc(Cl)cc2)N3)cc1` (stereo unspecified) was tested. Which survival did it give?
Answer: inactive: 54%

Question: Which survival does the source give for `O=C(Nc1ccccc1)C1CCCN1C(=O)Nc1ccc(F)cc1` (stereo unspecified) here?
Answer: inactive: 100%

Question: With `CCOC(=O)c1ccc(NC(=O)c2cc3c([nH]c2=O)CC(c2ccccc2)CC3=O)cc1` (stereo unspecified) as the compound, how does the survival read?
Answer: inactive: 95%

Question: Which survival does the source give for `CC(c1ccccc1F)n1cc(C(=O)NCC2CCCO2)nn1` (stereo unspecified) here?
Answer: inactive: 89%

Question: How did the survival turn out when `Cc1c(C(=O)N(C)C)sc2c1c(=O)n(-c1ccc(Cl)c(Cl)c1)c(=O)n2CC(=O)Nc1ccc(Br)cc1F` was run?
Answer: inactive: 144%

Question: For `COc1cccc(C(=O)N2CCC(N3CCN(Cc4ccc(F)cc4)C(=O)C3=O)CC2)c1`, which survival is on record?
Answer: inactive: 87%

Question: `COC(=O)CSc1nnc(COc2ccc(C(C)C)cc2)o1` was tested. Which survival did it give?
Answer: inactive: 96%

Question: Which survival does the source give for `Cc1ccc(Cl)cc1N1CCN(C(=O)c2c(C)oc3ncnc(N4CCOCC4)c23)CC1` here?
Answer: inactive: 89%

Question: How did the survival turn out when `O=C(NC1CCCC1)C(c1ccccc1)N(CC1CCCO1)C(=O)Cn1nnc2ccccc21` (stereo unspecified) was run?
Answer: inactive: 89%

Question: How did the survival turn out when `COC(=O)c1cccc(Nc2c(-c3cc(Br)ccc3O)nc3nc[nH]n23)c1` was run?
Answer: inactive: 98%

Question: Which survival does the source give for `CCOc1ccccc1NC(=O)c1c(NCc2ccc(OC)c(OC)c2OC)sc2c1CCC(C)C2` (stereo unspecified) here?
Answer: inactive: 107%

Question: Which survival does the source give for `CCc1nnc(SCc2nc(-c3ccccc3F)oc2C)c2cc3sccc3n12` here?
Answer: inactive: 65%

Question: Which survival does the source give for `COc1ccc(N(CC(O)CN2CCCC2)S(=O)(=O)c2ccccc2)cc1` (stereo unspecified) here?
Answer: inactive: 76%

Question: Which survival does the source give for `O=C(C1COc2ccccc2O1)N(Cc1cccnc1)c1nc2c(F)cc(F)cc2s1` (stereo unspecified) here?
Answer: inactive: 70%

Question: With `Cc1ccc(C(=O)Nc2nnc(SCc3cc(=O)c4c(C)ccc(C)c4[nH]3)s2)cc1` as the compound, how does the survival read?
Answer: inactive: 86%

Question: `O=C(Nc1ccc2nn(-c3ccc(F)cc3)nc2c1)c1cccc2c(Cl)cccc12` was tested. Which survival did it give?
Answer: inactive: 139%

Question: `COc1ccc(OCc2nnc(SCC(=O)O)n2N)cc1` was tested. Which survival did it give?
Answer: inactive: 81%

Question: Which survival does the source give for `Cc1ccc(Cl)cc1-n1c(=O)cc(N2CCN(c3ccccc3)CC2)[nH]c1=O` here?
Answer: inactive: 92%

Question: Which survival does the source give for `Cc1cc2n(n1)CCCN2C(=O)Nc1ccccc1F` here?
Answer: inactive: 67%

Question: Which survival does the source give for `Cc1cccc(-c2noc(-c3ccc(NC4CCCC4)c([N+](=O)[O-])c3)n2)c1` here?
Answer: inactive: 81%

Question: With `Cc1ccc(OCC(=O)Nc2cccc(C(=O)OCc3cc(=O)n4cc(C)sc4n3)c2)cc1` as the compound, how does the survival read?
Answer: inactive: 94%
